The results in this text go back to article PMC4336329 (PLoS ONE, 2015).

Screen size: about 310,000 compounds; about 14,000 (4.5%) showed an effect of 50% or more. The effect is printed as a negative number. The list shows a part of the results.
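Further: peak tail current of the secondary pulse compared with the same well before compound.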

The target in the assay is human ether-à-go-go-related gene (hERG) potassium channel (human, UniProt Q12809). Kind of assay: primary screen, population patch clamp on CHO cells stably expressing hERG.
Chain of human ether-à-go-go-related gene (hERG) potassium channel (Q12809 whole entry, looked up): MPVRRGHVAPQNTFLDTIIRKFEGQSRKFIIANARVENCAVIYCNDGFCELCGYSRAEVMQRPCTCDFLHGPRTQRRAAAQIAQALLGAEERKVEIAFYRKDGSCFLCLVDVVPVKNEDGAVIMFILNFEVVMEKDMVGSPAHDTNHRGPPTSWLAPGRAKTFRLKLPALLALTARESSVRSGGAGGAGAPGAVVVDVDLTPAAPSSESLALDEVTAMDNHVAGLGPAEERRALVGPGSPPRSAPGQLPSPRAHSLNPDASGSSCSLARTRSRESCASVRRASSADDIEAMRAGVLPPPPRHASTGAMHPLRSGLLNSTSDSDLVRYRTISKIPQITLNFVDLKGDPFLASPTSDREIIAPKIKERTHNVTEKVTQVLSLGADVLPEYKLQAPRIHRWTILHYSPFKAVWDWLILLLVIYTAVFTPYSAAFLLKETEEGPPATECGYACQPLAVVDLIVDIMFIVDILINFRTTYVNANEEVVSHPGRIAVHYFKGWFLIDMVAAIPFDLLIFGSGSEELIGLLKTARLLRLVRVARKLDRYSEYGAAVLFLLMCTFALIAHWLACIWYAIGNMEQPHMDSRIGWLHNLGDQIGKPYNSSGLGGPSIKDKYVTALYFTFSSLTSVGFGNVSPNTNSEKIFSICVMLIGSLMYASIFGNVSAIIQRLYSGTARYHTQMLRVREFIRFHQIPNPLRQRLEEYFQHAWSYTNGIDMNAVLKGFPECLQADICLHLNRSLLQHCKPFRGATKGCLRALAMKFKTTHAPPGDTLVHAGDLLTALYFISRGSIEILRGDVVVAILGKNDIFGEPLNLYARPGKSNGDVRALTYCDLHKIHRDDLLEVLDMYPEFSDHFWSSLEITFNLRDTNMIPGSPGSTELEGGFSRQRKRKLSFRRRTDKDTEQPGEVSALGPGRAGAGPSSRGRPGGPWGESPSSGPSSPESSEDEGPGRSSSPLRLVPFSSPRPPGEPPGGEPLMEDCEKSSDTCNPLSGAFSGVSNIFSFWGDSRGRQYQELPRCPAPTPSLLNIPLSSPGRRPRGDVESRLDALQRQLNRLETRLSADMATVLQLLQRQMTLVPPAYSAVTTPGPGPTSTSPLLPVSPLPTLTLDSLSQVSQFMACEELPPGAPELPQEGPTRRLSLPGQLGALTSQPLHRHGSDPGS
Consider `Cc1ccc(NC(=S)c2ccc3ccccc3n2)c(C)c1`, for which the “hERG current change (%, negative = inhibition) at 10uM” value is 25.4%.

In the case of `O=C(/C=C/c1ccc(Cl)cc1Cl)Nc1cccc(S(=O)(=O)NC2=NCCCCC2)c1`, the “hERG current change (%, negative = inhibition) at 10uM” value is -4.26%.

In the case of `O=C1CC(NNc2nc3ccccc3s2)C(=O)N1c1ccccc1` (stereo not shown), the “hERG current change (%, negative = inhibition) at 10uM” value is given as -1.89%.

Regarding `CN(C)c1ccc(/C=C2\C(=N)N3C(=NC2=O)Sc2cc(S(C)(=O)=O)ccc23)cc1`, the “hERG current change (%, negative = inhibition) at 10uM” value was 14.7%.

`O=C(O)CN1C(=O)CC(Cc2ccccc2)C1=O` (stereo not shown): the “hERG current change (%, negative = inhibition) at 10uM” value is recorded as 8.43%.

With `COC(=O)C1=C(c2ccc(F)cc2F)C[C@@H]2CC[C@H]1N2C(=O)NCc1ccc(C(F)(F)F)cc1`, the “hERG current change (%, negative = inhibition) at 10uM” value is -0.48%.

With `COC(=O)c1nc2cc(C)ccn2c1F`, the “hERG current change (%, negative = inhibition) at 10uM” value is 7.63%.

Regarding `CC(C)C(NC(=O)c1ccccc1)C(=O)OCc1cc([N+](=O)[O-])cc2c1OCOC2` (stereo not shown), the “hERG current change (%, negative = inhibition) at 10uM” value was -16.5%.

In the case of `Cl.NCC12CC3CC(C1)CC(c1ccc(Br)cc1)(C3)C2`, the “hERG current change (%, negative = inhibition) at 10uM” value was -3.74%.

As for `COc1ccc(-c2noc(CN(C)C3CCOCC3)n2)cc1`, the “hERG current change (%, negative = inhibition) at 10uM” value was -8.59%.

`CC(C)(C)NC(=O)C12CCC(C)(c3nc4ccccc4nc31)C2(C)C` (stereo not shown): the “hERG current change (%, negative = inhibition) at 10uM” value is -1.94%.

In the case of `Cc1cc(N2CCN(c3nc(-c4ccccc4)cs3)CC2)c2ccccc2n1`, the “hERG current change (%, negative = inhibition) at 10uM” value was -23.3%.

`Cc1ccc(C23CC4CC(CC(NC(=O)NCCN(C)C)(C4)C2)C3)cc1`: the “hERG current change (%, negative = inhibition) at 10uM” value is -15.5%.

In the case of `CCOC(=O)c1c(S(=O)(=O)N2CCc3ccccc32)c(C)n(C)c1C`, the “hERG current change (%, negative = inhibition) at 10uM” value was -10.5%.

In the case of `CCn1c(SCC(=O)Nc2ccc(S(N)(=O)=O)cc2)nnc1-c1ccccc1OC`, the “hERG current change (%, negative = inhibition) at 10uM” value worked out at 2.47%.

For `Cc1cccc(NC(=O)C2CCCN(C(=O)Nc3ccccc3)C2)c1C` (stereo not shown), the “hERG current change (%, negative = inhibition) at 10uM” value was -2.12%.

`Cc1ncc([N+](=O)[O-])n1CC(=O)NC1CCCCC1`: the “hERG current change (%, negative = inhibition) at 10uM” value was found to be 0.713%.

Consider `Cc1onc(-c2ccccc2)c1CNC(=O)Nc1ccccc1`, for which the “hERG current change (%, negative = inhibition) at 10uM” value amounted to 13.3%.

`Cc1ccccc1OCCC(=O)OCC(=O)NC1CCS(=O)(=O)C1` (stereo not shown): the “hERG current change (%, negative = inhibition) at 10uM” value was found to be 16.6%.

Turning to `O=C(NCCc1ccccc1)C1c2ccccc2C(=O)N1Cc1cccs1` (stereo not shown), the “hERG current change (%, negative = inhibition) at 10uM” value was 13.3%.

For `Cc1ccc2[nH]c3c(=O)n(CC(=O)Nc4ccccc4N4CCN(C)CC4)ncc3c2c1`, the “hERG current change (%, negative = inhibition) at 10uM” value is -5.73%.

In the case of `Cn1nnc2c(C(N)=O)ncn2c1=O`, the “hERG current change (%, negative = inhibition) at 10uM” value is -13.3%.

Consider `Cc1ccc(C)c(NC(=O)C(Sc2ncnc3ccccc23)c2ccccc2)c1` (stereo not shown), for which the “hERG current change (%, negative = inhibition) at 10uM” value was -14.8%.

As for `COc1ccc(Cl)cc1N(C)C(=O)CCNC(=O)Cn1cnc2ccccc2c1=O`, the “hERG current change (%, negative = inhibition) at 10uM” value came out at 6.62%.

`O=C(NCc1ccccn1)C1CC(=O)N(C2CCCC2)C1` (stereo not shown): the “hERG current change (%, negative = inhibition) at 10uM” value is 9.62%.

With `COc1ccc(Oc2cc(C(F)(F)F)cnc2C(N)=O)cc1`, the “hERG current change (%, negative = inhibition) at 10uM” value was 13.6%.

For the molecule `CC1(C)CC(=O)C(C=NCCN2CCN(C3CC(=O)N(c4ccc(Br)cc4)C3=O)CC2)=C(O)C1` (stereo not shown), the “hERG current change (%, negative = inhibition) at 10uM” value was -19.3%.

Turning to `O=C(N1CCCCC1)C1(c2ccccc2)CCCCC1`, the “hERG current change (%, negative = inhibition) at 10uM” value turned out to be 4.43%.

As for `CCC(C)(C)n1nnnc1CN1CCN(c2ccc(OC)cc2)CC1`, the “hERG current change (%, negative = inhibition) at 10uM” value is -17%.

With `Cc1cccc(CSc2nnc(-c3cccs3)n2Cc2ccco2)c1`, the “hERG current change (%, negative = inhibition) at 10uM” value is recorded as -38.1%.

For `CCOC(=O)c1[nH]c2ccc(OCC)cc2c1NC(=O)CN1CCN(c2ccccn2)CC1`, the “hERG current change (%, negative = inhibition) at 10uM” value was -12.7%.

For `CN(C)S(=O)(=O)c1ccc(NC(=O)CNc2cc(S(=O)(=O)N3CCCC3)ccc2OCC(F)(F)F)cc1`, the “hERG current change (%, negative = inhibition) at 10uM” value is -11.4%.

Turning to `CC(=O)NCCc1ccc(S(=O)(=O)N2CCN(c3nc(-c4ccccc4)c(C)s3)CC2)cc1`, the “hERG current change (%, negative = inhibition) at 10uM” value is 16.6%.

As to `S=C(NCc1ccco1)N1CCOCC1`, the “hERG current change (%, negative = inhibition) at 10uM” value amounted to 12.6%.

As to `CCCSc1nnc(NC(=O)CSc2sc3c(O)cc(=O)[nH]c3c2C#N)s1`, the “hERG current change (%, negative = inhibition) at 10uM” value was -0.611%.

As for `COc1ccc(C2C(C#N)=C(N)N(c3ncn[nH]3)C3=C2C(=O)CCC3)cc1` (stereo not shown), the “hERG current change (%, negative = inhibition) at 10uM” value was 43%.

For the molecule `CC(=O)Nc1ccc(NC(=O)CSc2nc3nc(-c4cccs4)cc(C(F)(F)F)c3c(=O)[nH]2)cc1`, the “hERG current change (%, negative = inhibition) at 10uM” value was 16.5%.

As for `Cc1ccc(NC(=O)c2c(-c3c(F)cccc3Cl)noc2C)cc1F`, the “hERG current change (%, negative = inhibition) at 10uM” value was -8.29%.

`CCN(CC)c1ccc(C(=O)OCC(=O)c2ccco2)cc1`: the “hERG current change (%, negative = inhibition) at 10uM” value came out at 22.1%.

With `O=C(c1cc2cc(C(F)(F)F)ccc2s1)N1CCOCC1`, the “hERG current change (%, negative = inhibition) at 10uM” value is -13.4%.

Take `CCOC(=O)c1ccc(NC(=S)N(CCCN2CCN(CC)CC2)Cc2cccs2)cc1`: the “hERG current change (%, negative = inhibition) at 10uM” value is given as -69.1%.

For `O=C(/C=C/c1ccc(Cl)cc1)Nc1ccc(S(=O)(=O)Nc2ncccn2)cc1`, the “hERG current change (%, negative = inhibition) at 10uM” value is recorded as 4.45%.

For the molecule `COc1cccc(NC(=S)N2CCN(c3ccc([N+](=O)[O-])cc3)CC2)c1`, the “hERG current change (%, negative = inhibition) at 10uM” value is listed as -27.5%.
